In the supplement of paper PMC11417369:
Some of the results follow.

The sequences below were run on PF3D7_0420300 AP2 domain 1 (GST-tagged) (assay: gcPBM binding intensity (ln(normalized median fluorescence intensity)); higher = stronger DNA binding).
Outline: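 An Agilent 4 × 180k array of primer-extended double-stranded 36-bp intergenic genomic probes, with negative controls, was incubated for 1 h with GST-tagged P. falciparum DNA-binding domains expressed in E. coli. Alexa488 anti-GST antibody detected bound protein, scanned at 488 nm. Binding intensity is the highest Masliner-normalised natural-log median intensity across replicate spots of either probe orientation.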

Sequence	gcPBM binding intensity (ln)
ATATATTAAAAACGATGTACCCTGAACTAAAAAAAA [XGTACX_site4986]	9.32
TATTTATTTATGTGTTGTACAAATAAATAGAGGTAT [XGTACX_site6408]	9.38
TATATGAAAATGTTCATACACACATAAAAAAAAAAA [CACACA_site3237]	9.42
AATACAAATATATACACACATACATACATACATATA [CACACA_site3147]	9.89
ATATATATATGTTACTGTACTAATTTATATGTTAAT [XGTACX_site3341]	9.42
TAGTTTTCTTAAAGATGTACATTTTAAAAATAATCT [XGTACX_site255]	8.86
TAGATATATAATTTGCGTACACAAATAATATATTTT [XGTACX_site6397]	9.04
TTATGGTTTAAATAAAGTACAAATAAATAAATATAT [XGTACX_site5777]	9.26
ATACACATATGTTAATGTACACATATATAATATTTA [XGTACX_site163]	9.28
CACAAAAATAGACACACACACATATAGATTTATTAT [CACACA_site7676]	10.1
TTATGAAAAATAAAATTAGAAAAAAAGGAAAATGAA [XGTACX_negctrl_site232]	9.24
TTTCTTAAATATATTGAGGAATAAAAAGAAGAAAAG [GTGCAC_negctrl_site281]	9.06
AGGTTACATAGATTTTGTACATATATATTATTTTTT [XGTACX_site3040]	9.37
AAAAAATTATAAAAGTGTACATATATATATATATAT [XGTACX_site154]	8.93
TAAATACTTTTATGTACACACATATAGATATATATT [CACACA_site5416]	9.36
GTGATAAATATTATATGTACATATAATATTTATGTC [XGTACX_site8023]	9.18
TTGAACCTGATAAATACACACAATATATATTTTTTT [CACACA_site2173]	9.36
CCATTCTTACTTTATTGTACTTGAAAATTTTTTTTA [XGTACX_site6160]	9.28
TCAAAAACGAGACATGCATGCAATTCATTTTGATTC [TGCATGCA_site212]	9
TTAAAATAGATAAATAGTACTCTTTCCATTATGTAA [XGTACX_site6299]	8.96
TATATAATAAGATATGCATGCACATGTAAAATGAAT [TGCATGCA_site499]	9.46
ATAATGTTTTATAATACACACATTAGATATATAAAT [CACACA_site7834]	9.41

Sequence	gcPBM binding intensity (ln)
TCATATAACACTTGATGTACAAGAATCCAAGTTGCA [XGTACX_site8758]	9.07
ATATGTATAATATATATATATATATATATATATATA [CACACA_negctrl_site623]	9
GAAATTATGTAAAAAAGTACTAACATACATATATAT [XGTACX_site1794]	9.35
GAAAACGTCTTTAATAGTACACAGTTAAAAAATACA [XGTACX_site8976]	8.98
TTTTTTTTTTTGATGGTGCAATATATTAAATAGAAA	8.87
TATATATATATATAAAGTACATATAATATATATTTG [XGTACX_site5412]	9.16
TTTTTTCATTATATATAGTATGCAAGTCAAATTAAT [GTGCAC_negctrl_site207]	8.91
AAAAAAAAAAAAAACATACACACATTGAACTTTTAT [CACACA_site3251]	9.65
CTATAAAAATATAATTGTACAAATTTTTATATCTTA [XGTACX_site7722]	8.89
ACAAAATTTACAAAATGTACAAAATTTACAAAATAT [XGTACX_site3542]	9.22
TTTTTGTGCATTGATTGTACTTTCTAGGATTATTAA [XGTACX_site7070]	9.42
TTTATCCAATAATCTGGTACACAATAATCATTCATG [XGTACX_site6192]	9.02
ATTCATATATACTTCACACACATTTTATCATTCAAA [CACACA_site2468]	9.78
TTTCTATTTATTTCAAGTACTAAAAATATATATAAC [XGTACX_site8203]	9.03
TTATTACCATATTTTGTACACACATCTTTATCTCAA [CACACA_site9054]	9.69
CTTGGGCGTCATAATGAACACACAATTATATTATGA [CACACA_site9297]	9.17
ATTATATAATCTATATGTACATATATATATATATAT [XGTACX_site4970]	9.19
TATATATAAGCGCATGCACACGCAAAGGTATATAAA [CACACA_site8107]	9.39
ATATATACAAATCCTTTTTTCCAAGATGGAAAAAGA [CACACA_negctrl_site382]	8.99
AAAATAATAAATAACGCATGCGTGTGCATTTTATTC [TGCATGCA_site898]	9.49
ATAATAATATTATTTTGTACATATGTGCTTATTTAT [XGTACX_site5540]	9.38
GTATAATTTAAAAAGTGTACATAAAGTTTTTATTAA [XGTACX_site1090]	8.85
